In the supplement of paper PMC12217912:
The other results are listed elsewhere or left out. Sequences were assembled here from the parent chain. Values near 0.05 are background.

B1: TEV protease; numbered along this chain (parent)
chain: MGESLFKGPRDYNPISSSICHLTNESDGHTTSLYGIGFGPFIITNKHLFRRNNGTLVVQSLHGVFKVKDTTTLQQHLVDGRDMIIIRMPKDFPPFPQKLKFREPQREERICLVTTNFQTKSMSSMVSDTSCTFPSGDGIFWKHWIQTKDGQCGSPLVSTRDGFIVGIHSASNFTNTNNYFTSVPKNFMELLTNQEAQQWVSGWRLNADSVLWGGHKVFMVKPEEPFQPVKEATQL

Variants of: B1
Assay: raw area under fraction-flipped curve 0-4 h after induction (AUC4h, not background-subtracted), DNA-recorder readout of cleavage of the substrate (dimensionless); higher = more cleavage of the substrate by the protease variant
Settings: temperature: 34 °C; time window: 0-4 h after rhamnose induction
Description: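 In vivo DNA recorder in E. coli TOP10(DE3) ΔrhaA at 34 °C. Each TEVp single-site mutant (parent TEVp 0) is paired with a single-site variant of the 7-mer TEVs (canonical ENLYFQ|S). The substrate sits between flexible linkers in a Bxb1-sfGFP-TEVs-SsrA fusion, so cleavage stabilises Bxb1 and speeds flipping of a recombination array, read by NGS. The value is the raw area under the fraction-flipped curve over 0-4 h after rhamnose induction (AUC4h), with ≥20 reads per time point. It is not background-subtracted; inactive controls average about 0.047.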
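Also: Bxb1 expression induced with 0.2% (w/v) L-rhamnose at OD600 near 0.5, cultures sampled hourly, flipped fraction per protease–substrate barcode pair counted by paired-end Illumina sequencing.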

| Variant | area with substrate ENLYFQA | area with substrate ENLYFQC | area with substrate ENLYFQF | area with substrate ENLYFQG | area with substrate ENLYFQH | area with substrate ENLYFQI | area with substrate ENLYFQK | area with substrate ENLYFQL | area with substrate ENLYFQM | area with substrate ENLYFQN | area with substrate ENLYFQS | area with substrate ENLYFQT | area with substrate ENLYFQV | area with substrate ENLYFQW | area with substrate ENLYFQY | area with substrate ENLYFQP | area with substrate ENLYFQR | area with substrate ENLYFQD | area with substrate ENLYFQE | area with substrate ENLYFQQ |
| --- | --- | --- | --- | --- | --- | --- | --- | --- | --- | --- | --- | --- | --- | --- | --- | --- | --- | --- | --- | --- |
| L112S | 0.0674 | 0.0783 | 0.0636 | 0.0863 | 0.061 | 0.0588 | 0.0499 | 0.0702 | 0.0686 | 0.065 | 0.0781 | 0.054 | 0.0567 | 0.0473 | 0.0559 |  |  |  |  |  |
| G136Q | 0.0938 |  |  | 0.0769 | 0.0769 | 0.0495 | 0.0683 | 0.0556 |  | 0.0732 | 0.103 | 0.072 |  |  | 0.0922 | 0.0473 | 0.0706 |  |  |  |
| G136T | 0.092 | 0.112 | 0.0571 | 0.0838 | 0.0844 | 0.0521 | 0.0604 | 0.0651 | 0.0831 | 0.0818 | 0.1 | 0.0658 | 0.0534 | 0.0624 | 0.0728 | 0.0466 | 0.0607 | 0.0602 | 0.0596 |  |
| G136H | 0.0819 | 0.134 | 0.0728 | 0.106 | 0.0822 | 0.0657 | 0.056 | 0.063 | 0.0847 | 0.0598 | 0.112 | 0.076 | 0.0498 |  | 0.0701 | 0.051 | 0.0592 | 0.0659 |  | 0.0623 |
| R106D | 0.0966 | 0.166 | 0.0626 |  | 0.0622 | 0.0578 | 0.0637 | 0.0755 |  | 0.0563 | 0.101 | 0.0659 | 0.0567 | 0.0548 | 0.0792 | 0.054 | 0.0624 | 0.0969 |  | 0.0575 |
| W144H | 0.0639 |  |  | 0.0711 | 0.078 | 0.0669 | 0.0585 | 0.056 | 0.0777 | 0.0608 | 0.08 | 0.0526 | 0.0923 | 0.0801 | 0.0714 | 0.0704 | 0.0499 | 0.0882 | 0.0535 | 0.0634 |
| W144V | 0.0836 | 0.0959 |  | 0.0853 | 0.0696 | 0.0432 | 0.0663 | 0.0534 | 0.061 |  | 0.086 | 0.0663 | 0.0579 | 0.0527 | 0.067 | 0.0613 | 0.0581 |  |  | 0.0556 |
| W144S | 0.0808 | 0.0944 |  | 0.0889 | 0.118 | 0.059 | 0.0648 | 0.0569 | 0.0997 | 0.0922 | 0.0885 | 0.0738 |  | 0.0777 | 0.0758 |  | 0.0584 |  |  | 0.096 |
| W144K | 0.0641 | 0.102 |  |  | 0.0789 | 0.058 |  |  | 0.0741 |  | 0.0894 |  |  | 0.0807 |  |  | 0.0626 | 0.0707 |  | 0.0639 |
| W144Y | 0.075 | 0.1 | 0.0559 | 0.0885 | 0.0731 | 0.0536 | 0.0677 | 0.062 | 0.0671 | 0.0747 | 0.0846 | 0.0641 | 0.0539 | 0.0635 | 0.0307 |  | 0.0603 | 0.0601 |  |  |
| W144C | 0.113 | 0.115 | 0.0433 | 0.0782 | 0.068 | 0.0558 |  | 0.0543 | 0.0855 | 0.0756 | 0.0889 | 0.0616 | 0.0631 | 0.067 | 0.0741 | 0.0685 | 0.0599 | 0.0723 |  |  |
